Measured values reported in the supplement of paper PMC8728848.
The other results are listed elsewhere or left out.

Experiments:
Assay in all cases: glycan array binding signal (z-score within array); higher = stronger binding
Settings in all cases: glycan notation: IUPAC condensed, linker removed
[1] = biological target: GlcNAc(a1-6)Gal(b1-4)GlcNAc
Method in brief: (§1)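 From the Consortium for Functional Glycomics database, 3228 arrays were curated, keeping only those whose protein sequence was available. Binding is given as a within-array Z-score averaged across arrays sharing a protein sequence and across linkers. Negative Z-scores can be read as non-binding.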

[2] = biological target: GlcNAc(b1-2)Gal(b1-3)GalNAc
Method in brief: as §1

[3] = biological target: GlcNAc(b1-2)Man(a1-3)[GlcNAc(b1-2)Man(a1-6)]Man(b1-4)GlcNAc(b1-4)GlcNAc
Method in brief: as §1

[4] = biological target: GlcNAc(b1-2)Man(a1-3)[GlcNAc(b1-2)Man(a1-6)]Man(b1-4)GlcNAc(b1-4)[Fuc(a1-6)]GlcNAc
Method in brief: as §1

GlcNAc(b1-3)Gal = biological target: GlcNAc(b1-3)Gal
Method in brief: as §1

[5] = biological target: GlcNAc(b1-3)Gal(b1-3)GalNAc
Method in brief: as §1

GlcNAc(b1-3)Gal(b1-4)Glc = biological target: GlcNAc(b1-3)Gal(b1-4)Glc
Method in brief: as §1

[6] = biological target: GlcNAc(b1-3)Gal(b1-4)GlcNAc
Method in brief: as §1

[7] = biological target: GlcNAc(b1-3)Gal(b1-4)GlcNAc(b1-3)Gal(b1-4)GlcNAc
Method in brief: as §1

GlcNAc(b1-3)GalNAc = biological target: GlcNAc(b1-3)GalNAc
Method in brief: as §1

GlcNAc(b1-3)Man = biological target: GlcNAc(b1-3)Man
Method in brief: as §1

[8] = biological target: GlcNAc(b1-3)[GlcNAc(b1-4)][GlcNAc(b1-6)]GlcNAc
Method in brief: as §1

[9] = biological target: GlcNAc(b1-3)[GlcNAc(b1-6)]Gal(b1-4)GlcNAc
Method in brief: as §1

[10] = biological target: GlcNAc(b1-3)[GlcNAc(b1-6)]GalNAc
Method in brief: as §1

[11] = biological target: GlcNAc(b1-4)Gal(b1-4)GlcNAc
Method in brief: as §1

GlcNAc(b1-4)GlcNAc = biological target: GlcNAc(b1-4)GlcNAc
Method in brief: as §1

[12] = biological target: GlcNAc(b1-4)GlcNAc(b1-4)GlcNAc
Method in brief: as §1

[13] = biological target: GlcNAc(b1-4)GlcNAc(b1-4)GlcNAc(b1-4)GlcNAc(b1-4)GlcNAc
Method in brief: as §1

[14] = biological target: GlcNAc(b1-4)GlcNAc(b1-4)GlcNAc(b1-4)GlcNAc(b1-4)GlcNAc(b1-4)GlcNAc
Method in brief: as §1

[15] = biological target: GlcNAc(b1-4)[GlcNAc(b1-6)]GalNAc
Method in brief: as §1

[16] = biological target: GlcNAc(b1-6)Gal(b1-4)GlcNAc
Method in brief: as §1

GlcNAc(b1-6)GalNAc = biological target: GlcNAc(b1-6)GalNAc
Method in brief: as §1

GlcNAc3Prop(b1-4)GlcNAc = biological target: GlcNAc3Prop(b1-4)GlcNAc
Method in brief: as §1

[17] = biological target: GlcNAc6S(b1-3)Gal(b1-4)GlcNAc
Method in brief: as §1

Kdn(a2-3)Gal(b1-3)GalNAc = biological target: Kdn(a2-3)Gal(b1-3)GalNAc
Method in brief: as §1

Kdn(a2-3)Gal(b1-3)GlcNAc = biological target: Kdn(a2-3)Gal(b1-3)GlcNAc
Method in brief: as §1

Kdn(a2-3)Gal(b1-4)Glc = biological target: Kdn(a2-3)Gal(b1-4)Glc
Method in brief: as §1

Kdn(a2-3)Gal(b1-4)GlcNAc = biological target: Kdn(a2-3)Gal(b1-4)GlcNAc
Method in brief: as §1

[18] = biological target: Kdn(a2-3)Gal(b1-4)[Fuc(a1-3)]GlcNAc
Method in brief: as §1

Kdn(a2-6)Gal(b1-4)GlcNAc = biological target: Kdn(a2-6)Gal(b1-4)GlcNAc
Method in brief: as §1

[19] = biological target: Man(a1-2)Man(a1-2)Man(a1-3)Man
Method in brief: as §1

[20] = biological target: Man(a1-2)Man(a1-2)Man(a1-6)[Man(a1-3)]Man
Method in brief: as §1

Man(a1-2)Man(a1-3)Man = biological target: Man(a1-2)Man(a1-3)Man
Method in brief: as §1

[21] = biological target: Man(a1-2)Man(a1-3)[Man(a1-2)Man(a1-6)]Man
Method in brief: as §1

[22] = biological target: Man(a1-2)Man(a1-3)[Man(a1-2)Man(a1-6)]Man(a1-6)[Man(a1-2)Man(a1-2)Man(a1-3)]Man
Method in brief: as §1

[23] = biological target: Man(a1-2)Man(a1-3)[Man(a1-2)Man(a1-6)]Man(a1-6)[Man(a1-2)Man(a1-2)Man(a1-3)]Man(b1-4)GlcNAc(b1-4)GlcNAc
Method in brief: as §1

[24] = biological target: Man(a1-2)Man(a1-3)[Man(a1-6)]Man(a1-6)[Man(a1-2)Man(a1-3)]Man(b1-4)GlcNAc(b1-4)GlcNAc
Method in brief: as §1

B1: HHL-1 (Homo sapiens), P07306 (protein)
chain: TKEYQDLQHLDNEESDHHQLRKGPPPPQPLLQRLCSGPRLLLLSLGLSLLLLVVVCVIGSQNSQLQEELRGLRETFSNFTASTEAQVKGLSTQGGNVGRKMKSLESQLEKQQKDLSEDHSSLLLHVKQFVSDLRSLSCQMAALQGNGSERTCCPVNWVEHERSCYWFSRSGKAWADADNYCRLEDAHLVVVTSWEEQKFVQHHIGPVNTWMGLHDQNGPWKWVDGTDYETGFKNWRPEQPDDWYGHGLGGGEDCAHFTDDGRWNDDVCQRPYRWVCETELDKASQEPPLL
- glycan array binding signal (z-score) [1]: -0.516
- glycan array binding signal (z-score) [2]: -0.548
- glycan array binding signal (z-score) [3]: -0.487
- glycan array binding signal (z-score) [4]: 0.484
- glycan array binding signal (z-score) (GlcNAc(b1-3)Gal): -0.562
- glycan array binding signal (z-score) [5]: 1.54
- glycan array binding signal (z-score) (GlcNAc(b1-3)Gal(b1-4)Glc): -0.307
- glycan array binding signal (z-score) [6]: -0.387
- glycan array binding signal (z-score) [7]: 0.833
- glycan array binding signal (z-score) (GlcNAc(b1-3)GalNAc): 1.09
- glycan array binding signal (z-score) (GlcNAc(b1-3)Man): 0.259
- glycan array binding signal (z-score) [8]: -0.553
- glycan array binding signal (z-score) [9]: -0.561
- glycan array binding signal (z-score) [10]: 0.046
- glycan array binding signal (z-score) [11]: -0.498
- glycan array binding signal (z-score) (GlcNAc(b1-4)GlcNAc): -0.421
- glycan array binding signal (z-score) [12]: -0.434
- glycan array binding signal (z-score) [13]: -0.149
- glycan array binding signal (z-score) [14]: -0.52
- glycan array binding signal (z-score) [15]: -0.467
- glycan array binding signal (z-score) [16]: 0.054
- glycan array binding signal (z-score) (GlcNAc(b1-6)GalNAc): 7.59
- glycan array binding signal (z-score) (GlcNAc3Prop(b1-4)GlcNAc): -0.427
- glycan array binding signal (z-score) [17]: -0.421
- glycan array binding signal (z-score) (Kdn(a2-3)Gal(b1-3)GalNAc): -0.48
- glycan array binding signal (z-score) (Kdn(a2-3)Gal(b1-3)GlcNAc): -0.538
- glycan array binding signal (z-score) (Kdn(a2-3)Gal(b1-4)Glc): -0.536
- glycan array binding signal (z-score) (Kdn(a2-3)Gal(b1-4)GlcNAc): 0.051
- glycan array binding signal (z-score) [18]: 0.447
- glycan array binding signal (z-score) (Kdn(a2-6)Gal(b1-4)GlcNAc): 0.024
- glycan array binding signal (z-score) [19]: -0.548
- glycan array binding signal (z-score) [20]: -0.116
- glycan array binding signal (z-score) (Man(a1-2)Man(a1-3)Man): -0.555
- glycan array binding signal (z-score) [21]: 0.449
- glycan array binding signal (z-score) [22]: -0.537
- glycan array binding signal (z-score) [23]: -0.069
- glycan array binding signal (z-score) [24]: 0.46
